The full ranking holds about 110,000 compounds; the median of “z-score” is about -0.1, and the highest 2% start at about 2. Some of the results follow.

For this assay, the target named is Metabotropic glutamate receptor 8 (Rattus norvegicus) (UniProt P70579). The assay is described as follows: mGluR8 Gi/Go-coupled signaling modulation – cell-based, rat, thallium flux, HTS, primary screen (AID 488969). The following applies: HEK293 rat mGluR8, GIRK (G protein-gated inwardly rectifying potassium channel) thallium flux, FluoZin2; at 10 µM; stronger effect = higher value; submaximal glutamate (EC20) added with thallium.
Sequence of UniProt P70579 (P70579 whole entry, looked up): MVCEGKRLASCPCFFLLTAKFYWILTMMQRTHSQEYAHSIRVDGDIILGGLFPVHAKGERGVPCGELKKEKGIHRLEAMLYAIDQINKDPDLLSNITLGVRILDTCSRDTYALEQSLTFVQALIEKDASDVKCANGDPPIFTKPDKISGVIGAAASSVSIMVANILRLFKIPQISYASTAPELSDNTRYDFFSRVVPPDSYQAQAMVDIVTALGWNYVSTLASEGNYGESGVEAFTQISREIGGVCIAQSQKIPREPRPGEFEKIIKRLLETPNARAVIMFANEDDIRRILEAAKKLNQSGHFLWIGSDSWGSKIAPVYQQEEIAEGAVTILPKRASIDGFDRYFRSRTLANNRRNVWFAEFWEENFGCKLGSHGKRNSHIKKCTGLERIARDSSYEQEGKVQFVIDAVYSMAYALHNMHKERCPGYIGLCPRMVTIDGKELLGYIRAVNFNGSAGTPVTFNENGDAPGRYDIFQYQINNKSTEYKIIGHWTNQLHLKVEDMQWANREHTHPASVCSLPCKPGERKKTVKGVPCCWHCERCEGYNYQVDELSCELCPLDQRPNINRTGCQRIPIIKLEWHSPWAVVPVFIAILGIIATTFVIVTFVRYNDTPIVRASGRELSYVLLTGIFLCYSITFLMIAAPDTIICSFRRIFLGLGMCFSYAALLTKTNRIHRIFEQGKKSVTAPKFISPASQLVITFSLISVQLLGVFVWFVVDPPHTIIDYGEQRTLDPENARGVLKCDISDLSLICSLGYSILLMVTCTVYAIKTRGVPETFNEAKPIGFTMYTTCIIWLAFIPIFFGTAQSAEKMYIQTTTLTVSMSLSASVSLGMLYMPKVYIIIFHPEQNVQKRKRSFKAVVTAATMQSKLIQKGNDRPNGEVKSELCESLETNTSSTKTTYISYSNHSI
For `NC(=O)CC12CC3CC(C1)CC(CC(N)=O)(C3)C2`, the z-score is -0.186.

Consider `COc1ccc(NS(=O)(=O)c2ccc(OC)c(N(C)S(=O)(=O)c3ccc(Cl)cc3)c2)cc1`, for which the z-score was -0.217.

Consider `Cc1cc(C)c(C#N)c(SCCS(=O)(=O)Cc2ccccc2)n1`, for which the z-score is -0.092.

In the case of `NC(=O)c1c(NC(=O)c2ccc(S(=O)(=O)N3CCOCC3)cc2)sc2c1CCCCC2`, the z-score is -0.139.

The compound `Cc1ccc(C(=O)Nc2ncnc3sc4c(c23)CCCCC4)cc1` gave a z-score of 0.137.

In the case of `CCOc1ccc(N2C(=O)CC(Sc3ncccn3)C2=O)cc1` (stereo not given), the z-score was -0.0351.

As to `Cc1ccc2[nH]c3c(=S)nc[nH]c3c2c1`, the z-score was 0.00346.

Consider `Cc1cccc(/C=C(\c2nc3ccccc3[nH]2)S(=O)(=O)c2ccccc2)c1`, for which the z-score was -0.268.

Take `COC(=O)c1c(NC(=O)C2CC2)sc2c1CCN(C(C)=O)C2`: the z-score is -0.169.

`COc1ccc(OC)c(Nc2ncnc3sc(-c4ccccc4)cc23)c1`: the z-score was -0.307.

Consider `CNc1nc(N2CCc3ccccc32)ncc1F`, for which the z-score stood at 0.501.

Consider `O=C(CN1C(=O)c2ccccc2S1(=O)=O)NCc1ccccn1`, for which the z-score was found to be 0.0386.

The compound `CCC(=O)N1CCc2cc(S(=O)(=O)N3CCc4ccccc4C3)ccc21` returned a z-score of 0.156.

`Cc1ccc(C)c(S(=O)(=O)NCc2ccc(C(=O)N3CCCCC3C)cc2)c1` (stereo not given): the z-score is -0.244.

With `O=C(CNCC1CCCO1)N1CCCc2ccccc21` (stereo not given), the z-score was -0.388.

As to `Cc1cc(NC(=O)CN2C(=O)NC(C)(c3ccc(OC(F)F)cc3)C2=O)no1` (stereo not given), the z-score was -0.134.

For `CCOc1ccc(CN(CCO)CCO)cc1[N+](=O)[O-]`, the z-score is -0.174.

In turn, `c1ccc(CCCNc2ncccn2)cc1` yielded a z-score of 0.568.

On to `COc1cccc(C(=O)N2CCN(S(C)(=O)=O)CC2)c1`, for which the z-score was -0.0391.

In the case of `CCOC(=O)c1c(C)[nH]c(C(=O)COC(=O)CSC)c1C`, the z-score is -0.0983.

On to `O=C(NCc1ccccc1)c1sc(=S)n2c1[nH]c(=O)c1ccccc12`, for which the z-score was -0.316.

For `Cc1ccc(S(=O)(=O)N2CCCOC2CNC(=O)C(=O)NCCCn2ccnc2)cc1` (stereo not given), the z-score was -0.0748.

As for `COc1nc(OCCNC(C)=O)nc(N(C)C)n1`, the z-score is -0.00356.

In the case of `CCN=c1scc(-c2ccc3c(c2)NC(=O)CO3)n1N=C1CCCC1`, the z-score was -0.0799.

As to `Cc1cccc(C)c1NC(=S)NCCCN1CCCC1=O`, the z-score is -0.0868.

`COc1ccc(NC(=O)/C=C/C(=O)O)cc1Cl` returned a z-score of 0.0641.

`CSc1nc2ccc(NC(=O)c3nn(C(C)C)c(=O)c4ccccc34)cc2s1`: the z-score was -0.391.

`O=C(NC(Cc1c[nH]c2ccccc12)c1nnc2n1CCCCC2)c1cccs1` (stereo not given) showed a z-score of 0.999.

The compound `Cc1ccc(-n2cc(C(=O)c3ccccc3O)cn2)cc1` yielded a z-score of 1.71.

On to `Cn1c2c(c(=O)n(C)c1=O)C(c1cccc([N+](=O)[O-])c1)Nc1ccccc1O2` (stereo not given), for which the z-score is -0.0548.

`O=C(OCC(=O)N1CCc2ccccc21)c1ccc[n+]([O-])c1` came in with a z-score of 0.176.

In the case of `Cc1cc2n(n1)C(c1cn(-c3ccccc3)nc1C)Nc1c(C)cccc1-2` (stereo not given), the z-score turned out to be 0.766.

Take `COc1ccc2oc(C(=O)OCC(=O)NCCN3C(=O)CSC3=O)c(C)c2c1`: the z-score is -0.302.

Turning to `Cc1ccc(NC(=O)CSc2nc3ccccc3c(=O)n2CCCN2CCCCC2)cc1C`, the z-score was found to be 0.975.

On to `COc1cc2c(cc1OC)C1=C(C#N)CC/C(=N\S(=O)(=O)c3cccc(Cl)c3)N1CC2`, for which the z-score was -0.167.

Turning to `COc1ccc(NC(=O)c2ccc(NC(=O)C(C)C)cc2)c([N+](=O)[O-])c1`, the z-score is -0.349.

In the case of `CC1(C)C2CCC1(CS(=O)(=O)NCc1ccc(C(=O)O)cc1)C(=O)C2` (stereo not given), the z-score is -0.0984.

`COC(=O)Nc1ncc(CN2CCCCC2)s1` gave a z-score of 0.102.

`O=C(COc1ccccc1F)NNC(=O)c1ccc(N2CCCCC2)c([N+](=O)[O-])c1` gave a z-score of 1.61.

Regarding `CCOC(=O)C1=C2c3ccc4ccccc4c3CC(C)(C)N2C(=O)C1=O`, the z-score is -0.0446.

As for `CCOC(=O)C1CCN(C(=O)c2cccc(C(=O)N3CCC(C(=O)OCC)CC3)c2)CC1`, the z-score was found to be 0.148.

Regarding `Cc1c(Cl)cccc1NC(=S)N1CCOCC1`, the z-score is -0.256.

In the case of `CCOC(=S)SCC(=O)N1CCc2cc(OC)ccc2C1C1C(=O)CCCC1=O` (stereo not given), the z-score worked out at 0.03.

In turn, `O=C1c2ccccc2C(=O)N1CCc1csc(-c2cccc(F)c2)n1` had a z-score of 0.0764.

For the compound `CC(C)(C)c1ccc(OCCNC(=O)Cc2ccc(F)cc2)cc1`, the z-score is -0.205.

For `CC(=O)N1N=C(c2ccc3ccccc3c2)OC1(C)C`, the z-score was -0.968.

As to `COCCN1C(=O)c2ccccc2C(C(=O)NCc2ccco2)C1c1c[nH]c2ccccc12` (stereo not given), the z-score was 0.908.

`COc1ccccc1N(CC(=O)Nc1ccccc1C)S(C)(=O)=O`: the z-score is 0.518.

For the compound `COC(=O)C1ON2OC(C(=O)OC)C(C(=O)OC)C2C1CC(C)=O` (stereo not given), the z-score was -0.367.

For the compound `O=C(NCCN1CCOCC1)c1ccc2ccccc2n1`, the z-score is -0.0158.

On to `O=C1CCC(=O)N1OCCCCOc1ccccc1`, for which the z-score was 0.279.

With `COc1ccc([N+](=O)[O-])cc1NC(=O)c1ccc(CN(c2ccc(C)c(C)c2)S(C)(=O)=O)cc1`, the z-score was -0.311.

For `O=C(NCc1ccco1)c1ccc(COc2ccccc2Cl)cc1`, the z-score was -0.105.

Take `NC1=NC(=O)CC(C(=O)NCc2ccccc2)S1` (stereo not given): the z-score is 0.208.

`CC(=O)NCCn1c(SCC(=O)NCC2CCCO2)nc2ccccc2c1=O` (stereo not given) displayed a z-score of 0.564.

On to `COc1ccc(CNC(=O)C/C(C)=N/NC(=O)Cc2ccc(OC)c(OC)c2)cc1`, for which the z-score came to 0.123.

With `Cc1cccc(OCC(=O)Nc2cc(C)on2)c1`, the z-score was -0.0536.

On to `CCN(CC)c1ccc(/C=N/NC(=S)NCc2ccccc2)cc1`, for which the z-score was -0.191.

With `CCOC(=O)N1CCN(C(=O)CS(=O)(=O)c2cn(Cc3ccc(Cl)cc3)c3ccccc23)CC1`, the z-score is -0.545.

Consider `CCc1cc(-c2n[nH]c(=S)n2-c2cccc(C)c2)cs1`, for which the z-score is 0.65.

Compound `COc1ccc(CSc2nnc(C)n2N)cc1` returned a z-score of 0.349.

For `CCc1ccc(NC(=O)c2cnc3n(c2=O)CCS3)cc1`, the z-score came to 2.53.

For the compound `O=c1cc(COn2nnc3ccc(C(F)(F)F)cc32)nc2sccn12`, the z-score is -0.473.

`COc1ccc(/C=N/n2c(N)nc(-c3ccccc3)c2-c2ccccc2)cc1`: the z-score was -0.377.

In turn, `Oc1ccc(/C=N/NC(=S)Nc2cccnc2)c(O)c1` came in with a z-score of 1.24.

Compound `CCCCC(CC)CNC(=O)/C=C/c1ccc(F)cc1` (stereo not given) displayed a z-score of 1.31.

As to `Cc1ccccc1C(=O)N1CCN(c2ccc([N+](=O)[O-])c(N3CCOCC3)c2)CC1`, the z-score was -0.213.

Take `Cn1cccc1C(=O)NC(=O)COC(=O)CC12CC3CC(CC(Br)(C3)C1)C2`: the z-score is -0.458.

For the compound `CCOc1ccccc1NC(=O)C1CCCN(S(=O)(=O)c2c(C)[nH]c(=O)[nH]c2=O)C1` (stereo not given), the z-score is -0.067.

As for `CCOC(=O)N1CCC(N2Cc3cccc(C(=O)NCc4ccccn4)c3C2=O)CC1`, the z-score is -0.271.
